About 14,000 (4.5%) of roughly 310,000 compounds showed an effect of 50% or more. The effect is printed as a negative number. Some of the results follow.
biological target: human ether-à-go-go-related gene (hERG) potassium channel (human, UniProt Q12809); assay: primary screen, population patch clamp on CHO cells stably expressing hERG
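Further: peak tail current of the secondary pulse compared with the same well before compound.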

Sequence of human ether-à-go-go-related gene (hERG) potassium channel (Q12809 whole entry, looked up): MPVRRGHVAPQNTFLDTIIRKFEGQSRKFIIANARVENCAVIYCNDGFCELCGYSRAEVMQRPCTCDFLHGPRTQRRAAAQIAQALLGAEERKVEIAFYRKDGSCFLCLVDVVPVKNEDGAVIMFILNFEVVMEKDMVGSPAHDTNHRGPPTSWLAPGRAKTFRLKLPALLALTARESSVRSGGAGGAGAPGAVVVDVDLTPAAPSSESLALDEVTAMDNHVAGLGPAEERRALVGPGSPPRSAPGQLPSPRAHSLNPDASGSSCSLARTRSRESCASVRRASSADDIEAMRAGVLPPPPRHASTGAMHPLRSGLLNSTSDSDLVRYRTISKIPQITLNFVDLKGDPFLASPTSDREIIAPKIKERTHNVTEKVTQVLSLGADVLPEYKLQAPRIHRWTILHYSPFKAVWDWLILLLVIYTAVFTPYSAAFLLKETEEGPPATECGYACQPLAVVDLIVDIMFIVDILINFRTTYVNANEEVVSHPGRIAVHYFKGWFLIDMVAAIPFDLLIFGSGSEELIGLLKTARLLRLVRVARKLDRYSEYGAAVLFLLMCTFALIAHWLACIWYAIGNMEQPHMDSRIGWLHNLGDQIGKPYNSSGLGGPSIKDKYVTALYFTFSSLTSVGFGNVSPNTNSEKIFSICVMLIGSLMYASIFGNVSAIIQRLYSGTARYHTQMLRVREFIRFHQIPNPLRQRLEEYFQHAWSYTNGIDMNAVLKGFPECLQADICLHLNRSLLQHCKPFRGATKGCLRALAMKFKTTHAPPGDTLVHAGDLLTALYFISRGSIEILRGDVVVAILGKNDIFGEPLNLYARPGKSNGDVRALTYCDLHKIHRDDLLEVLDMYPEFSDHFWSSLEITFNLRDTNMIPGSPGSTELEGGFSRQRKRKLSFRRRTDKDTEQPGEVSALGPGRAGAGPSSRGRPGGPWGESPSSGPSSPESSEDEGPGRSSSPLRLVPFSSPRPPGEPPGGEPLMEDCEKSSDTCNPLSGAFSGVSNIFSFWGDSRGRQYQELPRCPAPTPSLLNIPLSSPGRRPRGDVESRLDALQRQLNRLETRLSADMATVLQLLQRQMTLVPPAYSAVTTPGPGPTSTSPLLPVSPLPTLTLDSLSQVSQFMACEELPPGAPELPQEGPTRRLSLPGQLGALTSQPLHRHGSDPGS

Question: Which “hERG current change (%, negative = inhibition) at 10uM” value does the source give for `Br.CCCc1nnc2n1N=C(c1ccc(OC)c(OC)c1)CS2` here?
Answer: -17.1%

Question: With `O=C(CSc1cc(Cl)ccc1Cl)Nc1ccc(N2CCOCC2)cc1` as the compound, how does the “hERG current change (%, negative = inhibition) at 10uM” value read?
Answer: -58.3%

Question: For `Cc1ccc(S(=O)(=O)N(C)C)cc1-n1c(SCC(=O)Nc2ccc(F)c(F)c2F)nc2ccccc2c1=O`, which “hERG current change (%, negative = inhibition) at 10uM” value is on record?
Answer: 8.58%

Question: How did the “hERG current change (%, negative = inhibition) at 10uM” value turn out when `NS(=O)(=O)c1ccc(-c2cccc(/C=C3\SC(=O)NC3=O)c2)cc1` was run?
Answer: 7.87%

Question: How did the “hERG current change (%, negative = inhibition) at 10uM” value turn out when `Cn1c(NCCCN2CCOCC2)nc2c1c(=O)n(Cc1ccc(Cl)cc1Cl)c(=O)n2C` was run?
Answer: -45.8%

Question: For `CN(C)Cc1ccc(O)c(CCc2ccccc2)n1.Cl`, which “hERG current change (%, negative = inhibition) at 10uM” value is on record?
Answer: -6.43%

Question: `Cc1ccc(S(=O)c2snnc2C)cc1` (stereo not drawn) was tested. Which “hERG current change (%, negative = inhibition) at 10uM” value did it give?
Answer: 28.1%

Question: `CCN(C(=O)Cc1c(C(=O)O)n(C)c2ccccc12)c1cc(OC)ccc1OC` was tested. Which “hERG current change (%, negative = inhibition) at 10uM” value did it give?
Answer: 11.9%

Question: Which “hERG current change (%, negative = inhibition) at 10uM” value does the source give for `CCCCOc1ccccc1-c1cc(C(=O)O)[nH]n1` here?
Answer: 12.8%

Question: For `COc1ccc(-c2nnc(SCc3cc(C)cc(C)c3)o2)cc1`, which “hERG current change (%, negative = inhibition) at 10uM” value is on record?
Answer: 6.31%

Question: `O=C(Nc1ccc(SC(F)F)cc1)C12CCC(CC1)C2` was tested. Which “hERG current change (%, negative = inhibition) at 10uM” value did it give?
Answer: 3.03%

Question: Which “hERG current change (%, negative = inhibition) at 10uM” value does the source give for `Nc1ccc2nc(SCC(=O)c3ccccc3)sc2c1` here?
Answer: 9.11%

Question: `CCCCOC(=O)c1cc(=O)[nH]c2ccc(C)cc12` was tested. Which “hERG current change (%, negative = inhibition) at 10uM” value did it give?
Answer: 5.6%

Question: Which “hERG current change (%, negative = inhibition) at 10uM” value does the source give for `CCN1CCN(C(CNS(=O)(=O)c2ccc(OC)c(C)c2)c2cccnc2)CC1` (stereo not drawn) here?
Answer: -70.2%

Question: How did the “hERG current change (%, negative = inhibition) at 10uM” value turn out when `COc1cccc(N(C(=O)CNC(=O)c2ccco2)C(C(=O)NC2CCCC2)c2ccco2)c1` (stereo not drawn) was run?
Answer: -8.79%

Question: Which “hERG current change (%, negative = inhibition) at 10uM” value does the source give for `COc1ccc2oc(C(=O)OC(C)C(=O)NC3(C#N)CCCCC3)c(C)c2c1` (stereo not drawn) here?
Answer: -15.8%

Question: For `CS(=O)(=O)c1ccc(Cl)c(NC(=O)COC(=O)CNC(=O)c2sc3ccccc3c2Cl)c1`, which “hERG current change (%, negative = inhibition) at 10uM” value is on record?
Answer: 3.27%

Question: `COc1ccc(NC(=O)CN(C)C(=O)CNC(=O)Cc2cccc3ccccc23)cc1` was tested. Which “hERG current change (%, negative = inhibition) at 10uM” value did it give?
Answer: 17.7%

Question: For `CCn1c(COc2ccc(C)cc2)nnc1SCC(=O)Nc1ccc2c(c1)OCCO2`, which “hERG current change (%, negative = inhibition) at 10uM” value is on record?
Answer: 7.22%

Question: `COC(=O)C1=C(c2cccc(OCc3ccccc3)c2)C[C@@H]2CC[C@H]1N2C(=O)NCc1cccc(F)c1` was tested. Which “hERG current change (%, negative = inhibition) at 10uM” value did it give?
Answer: 9.01%

Question: Which “hERG current change (%, negative = inhibition) at 10uM” value does the source give for `Cc1ccc2c(c1)N(CCC(=O)NCC1CCCO1)C(=O)CO2` (stereo not drawn) here?
Answer: -0.659%

Question: For `O=C(Nc1cccc(S(=O)(=O)N2CCCCC2)c1)c1ccc(S(=O)(=O)C(F)F)cc1`, which “hERG current change (%, negative = inhibition) at 10uM” value is on record?
Answer: -18.4%

Question: For `COC(=O)c1ccc(COn2nnc3ccccc32)cc1`, which “hERG current change (%, negative = inhibition) at 10uM” value is on record?
Answer: 3.98%

Question: `CCOC(=O)N1CCC(NC(=O)Cn2nc(-c3ccccc3)ccc2=O)CC1` was tested. Which “hERG current change (%, negative = inhibition) at 10uM” value did it give?
Answer: 1.27%

Question: Which “hERG current change (%, negative = inhibition) at 10uM” value does the source give for `COc1ccc([C@H]2CC(=O)C=C(c3cccc4c3Oc3ccccc3S4)C2)cc1` here?
Answer: -28.4%

Question: Which “hERG current change (%, negative = inhibition) at 10uM” value does the source give for `COc1ccc(CNc2nc(SC)n[nH]2)cc1OC` here?
Answer: 13.8%

Question: `CN(C)c1nnnn1Cc1ccc(Cl)cc1Cl` was tested. Which “hERG current change (%, negative = inhibition) at 10uM” value did it give?
Answer: -2.12%

Question: `Cn1c(CN2CCOCC2)nnc1SCC(=O)Nc1ccc([N+](=O)[O-])cc1O` was tested. Which “hERG current change (%, negative = inhibition) at 10uM” value did it give?
Answer: 15.8%

Question: With `CN(C)S(=O)(=O)c1cccc(C(=O)Nc2n[nH]c(C(F)(F)F)n2)c1` as the compound, how does the “hERG current change (%, negative = inhibition) at 10uM” value read?
Answer: 13.1%

Question: Which “hERG current change (%, negative = inhibition) at 10uM” value does the source give for `O=C(CS(=O)(=O)Cc1ccccc1)NCc1ccccc1Cl` here?
Answer: 5.16%

Question: Which “hERG current change (%, negative = inhibition) at 10uM” value does the source give for `O=C(Nc1ccc(F)cc1F)c1cc(-c2ccco2)on1` here?
Answer: -5.36%

Question: `COc1ccccc1OC(=O)CCN1c2ccccc2Sc2ccccc21` was tested. Which “hERG current change (%, negative = inhibition) at 10uM” value did it give?
Answer: 10.5%

Question: With `CCOc1ccccc1N1CCN(c2nc(N)c(C#N)c(CC#N)c2C#N)CC1` as the compound, how does the “hERG current change (%, negative = inhibition) at 10uM” value read?
Answer: -37.2%

Question: `COc1ccc(C2=C(CC(=O)O)C(=O)CC2)cc1` was tested. Which “hERG current change (%, negative = inhibition) at 10uM” value did it give?
Answer: 11.6%

Question: How did the “hERG current change (%, negative = inhibition) at 10uM” value turn out when `CN(C)/C=C1\N=C(c2cccnc2Oc2ccc(Cl)cc2)OC1=O` was run?
Answer: -7.31%

Question: Which “hERG current change (%, negative = inhibition) at 10uM” value does the source give for `COc1ccccc1C(NC(=O)C1CCCCC1)c1c(O)ccc2ccccc12` (stereo not drawn) here?
Answer: 0.426%

Question: With `CC1Sc2ccc(S(=O)(=O)CCC(=O)N3CCCCC3)cc2NC1=O` (stereo not drawn) as the compound, how does the “hERG current change (%, negative = inhibition) at 10uM” value read?
Answer: 14.2%

Question: How did the “hERG current change (%, negative = inhibition) at 10uM” value turn out when `N#Cc1c(-c2ccco2)nc(SCC(=O)Nc2cccc(Cl)c2)[nH]c1=O` was run?
Answer: -0.00632%

Question: How did the “hERG current change (%, negative = inhibition) at 10uM” value turn out when `Cc1ccc(C(=O)N2CCOCC2)cc1S(=O)(=O)N1CCOCC1` was run?
Answer: 17.1%

Question: For `COc1ccccc1CNC(=O)CSc1ccc(C)cc1`, which “hERG current change (%, negative = inhibition) at 10uM” value is on record?
Answer: -10.3%

Question: How did the “hERG current change (%, negative = inhibition) at 10uM” value turn out when `O=C(NNS(=O)(=O)c1ccc(Br)cc1)NC1CCCCC1` was run?
Answer: 7.63%

Question: `CCOc1ccccc1/C=C/c1onc(C)c1S(=O)(=O)N1CCC(C(=O)NC(C)C)CC1` was tested. Which “hERG current change (%, negative = inhibition) at 10uM” value did it give?
Answer: 15.4%

Question: Which “hERG current change (%, negative = inhibition) at 10uM” value does the source give for `O=C(Cc1ccc(-c2ccccc2)cc1)OCC(=O)N1CCCC1=O` here?
Answer: 8.71%

Question: How did the “hERG current change (%, negative = inhibition) at 10uM” value turn out when `COC(=O)c1cc2c(cc1N)OCCO2` was run?
Answer: 25.5%

Question: `CCCc1noc2c1/C(=N\O)CC(c1ccccc1)C2` (stereo not drawn) was tested. Which “hERG current change (%, negative = inhibition) at 10uM” value did it give?
Answer: 8.36%

From PMC4336329 (PLoS ONE, 2015)
